Screen size: about 310,000 compounds; about 14,000 (4.5%) showed an effect of 50% or more. Effects have a minus sign here. This is one part of the list.
molecular target: human ether-à-go-go-related gene (hERG) potassium channel (human, UniProt Q12809); assay: primary screen, population patch clamp on CHO cells stably expressing hERG
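Also: peak tail current of the secondary pulse compared with the same well before compound.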

Sequence of human ether-à-go-go-related gene (hERG) potassium channel (Q12809 whole entry, looked up): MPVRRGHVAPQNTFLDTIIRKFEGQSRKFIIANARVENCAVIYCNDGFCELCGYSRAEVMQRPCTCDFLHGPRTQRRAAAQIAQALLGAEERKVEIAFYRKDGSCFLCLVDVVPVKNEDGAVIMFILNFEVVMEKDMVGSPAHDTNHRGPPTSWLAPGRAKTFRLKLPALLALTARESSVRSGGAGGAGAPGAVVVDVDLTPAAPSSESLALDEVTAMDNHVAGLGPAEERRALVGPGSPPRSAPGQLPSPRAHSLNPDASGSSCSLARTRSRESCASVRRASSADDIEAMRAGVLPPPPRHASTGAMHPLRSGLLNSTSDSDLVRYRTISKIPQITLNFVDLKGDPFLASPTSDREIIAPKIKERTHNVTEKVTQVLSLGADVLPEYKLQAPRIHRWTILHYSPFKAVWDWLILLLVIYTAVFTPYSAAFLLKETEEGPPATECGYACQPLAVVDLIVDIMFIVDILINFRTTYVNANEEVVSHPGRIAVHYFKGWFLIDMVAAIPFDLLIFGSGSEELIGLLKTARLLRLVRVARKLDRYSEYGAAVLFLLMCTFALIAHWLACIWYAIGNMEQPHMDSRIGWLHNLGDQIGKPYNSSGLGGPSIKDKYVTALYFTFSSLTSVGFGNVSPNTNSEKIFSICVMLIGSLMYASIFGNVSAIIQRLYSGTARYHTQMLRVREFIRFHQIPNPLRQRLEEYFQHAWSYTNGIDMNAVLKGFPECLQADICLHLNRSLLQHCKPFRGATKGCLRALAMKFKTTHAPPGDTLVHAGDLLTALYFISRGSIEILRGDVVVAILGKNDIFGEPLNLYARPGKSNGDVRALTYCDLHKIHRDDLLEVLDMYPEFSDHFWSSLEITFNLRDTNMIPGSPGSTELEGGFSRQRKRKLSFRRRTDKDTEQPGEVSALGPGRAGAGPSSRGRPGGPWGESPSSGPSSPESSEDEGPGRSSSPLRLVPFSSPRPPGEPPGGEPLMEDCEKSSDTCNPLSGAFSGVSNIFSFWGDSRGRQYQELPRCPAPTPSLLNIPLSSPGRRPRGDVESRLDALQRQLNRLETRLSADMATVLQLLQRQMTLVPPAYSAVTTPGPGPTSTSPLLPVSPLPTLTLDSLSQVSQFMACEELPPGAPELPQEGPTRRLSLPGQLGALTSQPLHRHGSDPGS

Row | Structure (SMILES) | hERG current change (%, negative = inhibition) at 10uM [%]
1 | CCCNC(=O)c1ccc(N2CCC3(CC2)CC(c2cccc(Br)c2)=NO3)c([N+](=O)[O-])c1 | -14.2
2 | NC(=S)NNC(=O)/C(=C/c1ccc(Br)cc1)NC(=O)c1ccccc1 | 40
3 | CC1Oc2ccccc2C=C1/C=N\NC(=O)c1cccnc1 (stereo not shown) | -35
4 | CCCCOC(=O)Oc1ccc2c(=O)c(Oc3cc(C)cc(C)c3)coc2c1 | 10.6
5 | CC(=O)c1cc2c(cc1NS(=O)(=O)c1ccccc1Br)OCO2 | 14
6 | CCNC(=S)N(CCc1c(C)[nH]c2ccc(Cl)cc12)Cc1ccco1 | -0.955
7 | Cc1cc(Cl)c2oc(C(=O)NCC(C)(C)N3CCOCC3)c(C)c2c1 | 6.96
8 | O=C(Nc1ccc(Cl)cc1)Nc1ccc(Oc2cccnc2)nc1 | 11.5
9 | O=C(COC(=O)C1CCN(/C=C/C(=O)C(F)(F)F)CC1)Nc1cccc(F)c1 | -20.9
10 | O=C(Nc1ccc(Cl)cc1N1CCOCC1)C1CCCO1 (stereo not shown) | 11.8
11 | N#CCCN(C(=O)c1ccc2c(=O)n3c(nc2c1)CCCCC3)c1ccccc1 | -13
12 | COc1ccc(CN(C(=O)c2cc3ccccc3oc2=O)C2CCS(=O)(=O)C2)cc1OC (stereo not shown) | 19.7
13 | CC1(c2ccco2)NC(=O)NC1=O (stereo not shown) | 5.73
14 | CCCNS(=O)(=O)c1cc(Cl)ccc1OC | 15.8
15 | CC1CCN(C(=O)CSc2nncn2C)CC1 | 2.85
16 | NC(=O)C1CCN(C(=O)CNC(=O)c2ccc(Br)o2)CC1 | -10.3
17 | COc1cc(OC)c(S(=O)(=O)Nc2ccc(C(=O)N3CCCC3)cc2)cc1NC(C)=O | 13.6
18 | Cc1cccc(/C=N/n2c(C)cc(C)c(C#N)c2=O)c1 | 5.72
19 | Cc1ccc(Nc2nnc(SCC(=O)c3ccc(Br)s3)s2)c(C)c1 | 14.7
20 | O=C(c1coc(=O)c(Br)c1)N1CCCc2ccccc21 | 8.22
21 | O=C(O)/C(=C\c1cn(-c2ccccc2)nc1-c1ccc(Cl)cc1)NC(=O)c1ccccc1 | 9.42
22 | CCN(CC(=O)NCc1ccncc1)S(=O)(=O)c1ccc(OC)cc1 | -8.29
23 | CCCCN(C(=S)NC(=O)c1ccccc1)c1c(N)n(Cc2ccccc2)c(=O)[nH]c1=O | 12.5

Row | Structure (SMILES) | hERG current change (%, negative = inhibition) at 10uM [%]
24 | COc1ccc(NC(=O)/C=C/C(=O)O)cc1Cl | 12.1
25 | COc1ccc(N2CC(C(=O)N3CCN(C)CC3)CC2=O)cc1 (stereo not shown) | 15.4
26 | CCC(=O)NC(c1ccccc1)c1c(O)ccc2ccccc12 (stereo not shown) | 18.9
27 | COC(=O)c1sc(NC(=O)CSc2nnc(C(C)C)n2C)nc1C | 6.64
28 | N#Cc1nc(-c2ccc(OCc3ccccc3)cc2)oc1NCc1ccco1 | 7.75
29 | COCCNC(=S)N1CCN(c2nc(-c3ccccc3)cs2)CC1 | -5.78
30 | COC(=O)c1cnn2c(C(F)(F)F)cc(-c3ccco3)nc12 | 0.654
31 | CC(=O)c1csc(-c2ccccc2)n1 | 14.5
32 | CCOC(=O)C(CC)Sc1nc2c(cnn2-c2ccccc2)c(=O)[nH]1 (stereo not shown) | 1.26
33 | O=C(NNc1ncc(C(F)(F)F)cc1Cl)c1c(Cl)cccc1Cl | -6.26
34 | CCc1ccc(NC(=O)c2cc(C)nn2-c2ccccc2)cc1 | -3.26
35 | CC1CC(=O)Nc2ccccc2N1S(=O)(=O)c1ccc(Br)cc1 (stereo not shown) | 19.1
36 | NC(=O)NC(=O)CSc1ccccc1 | 17.1
37 | CC1CC(OC(=O)CN2CCCCC2)CC(C)(C)C1 (stereo not shown) | 12.8
38 | O=C(O)C1CCN(C(=O)c2ccccc2C(=O)N2CCC(C(=O)O)CC2)CC1 | 20.4
39 | Cc1cc(=O)oc2c(C)c(OC(C)C(=O)NCC(O)c3ccccc3)ccc12 (stereo not shown) | 5.59
40 | CC(=O)C(Cc1ccccc1)NC(=O)CN(C)Cc1ccccc1Cl (stereo not shown) | -17.8
41 | Cc1ccc(C(=O)OCC(=O)N2CC(C)CC(C)C2)cc1S(=O)(=O)N1CCCCC1 (stereo not shown) | -37.5
42 | Cc1nnc2sc(SCc3ccccc3Cl)nn2c1=O | -14.9
43 | CC(=O)N1CCSc2ccc(S(=O)(=O)Nc3ccccc3C)cc21 | -4.17
44 | Cc1ccc2[nH]c(SCC(=O)N3CCOCC3)nc2c1C | 8.6
45 | CN(C)c1ccc(CNC(=O)c2cc(S(=O)(=O)N3CCCC3)cn2C)cc1 | -10
46 | CC(=O)Nc1nc2ccccc2n1Cc1ccccc1 | -20.3

Row | Structure (SMILES) | hERG current change (%, negative = inhibition) at 10uM [%]
47 | O=C(CCCCCNc1nc(=S)[nH]c2ccccc12)NCc1ccccc1Cl | -8.69
48 | O=C(Nc1ccc(Cl)c(Cl)c1)N(CCCN1CCOCC1)Cc1cccnc1 | -55.5
49 | COc1ccc(C(CNC(=O)C2CC(=O)N(Cc3ccc(C)cc3)C2)N(C)C)cc1 (stereo not shown) | -17.4
50 | COc1cc(C(=O)OCC(=O)N(CC(C)C)C2CCS(=O)(=O)C2)ccc1OCC(C)C (stereo not shown) | -12.4
51 | COc1ccc(N2C(=O)CC(n3cnc4ccccc43)C2=O)cc1 (stereo not shown) | 0.448
52 | Cc1ccc(-c2ccc(C3C(C#N)=C(N)Oc4n[nH]c(C)c43)o2)cc1 (stereo not shown) | 12
53 | CCOC(=O)c1c(NC(NC(=O)C(C)C)C(Cl)(Cl)Cl)sc2c1CCC2 (stereo not shown) | 11
54 | O=C(NCc1cccnc1)C(Cl)(Cl)Cl | 0.208
55 | Cn1c(=O)[nH]c(=O)c2c1nc(NCc1ccccc1)n2CCCc1ccccc1 | 3.53
56 | O=C(OCC(=O)N1CCCCC1)c1ccccc1SCC(=O)N1CCCCC1 | 11.2
57 | O=C(Cc1ccc([N+](=O)[O-])cc1)NC(C(=O)[O-])C(O)c1cccc([N+](=O)[O-])c1.[Na+] (stereo not shown) | -0.659
58 | O=C(NC(=S)Nc1cccnc1)c1cccc(Br)c1 | 14.9
59 | Cc1nc2ccc(NC(=O)N3CCOCC3)cc2s1 | 14.5
60 | CCOC(=O)c1oc2ccc(Cl)cc2c1NC(C)=O | 9.36
61 | CSc1nsc(SC)c1NC(=O)OCC1CCCO1 (stereo not shown) | 19.7
62 | CCOc1ccc(C(=O)NCC(=O)OCc2c(F)cccc2Cl)cc1 | -2.7
63 | CCOc1ccc(C(=O)NCC(=O)NCC(c2ccco2)N2CCCCC2)cc1OCC (stereo not shown) | -30.8
64 | Cc1nn(-c2ccccc2)c(Cl)c1/C=N/NC(=O)c1ccccc1F | 14.6
65 | COc1cc(CNCc2ccccn2)ccc1OCc1cccc(Cl)c1.Cl | -54
66 | CCOc1ccc(N(CC(=O)Nc2cccc(C)c2C)S(=O)(=O)c2c(C)[nH]c(=O)[nH]c2=O)cc1 | 8.48
67 | CCc1ccc(CN2CC(C(=O)O)CC2=O)cc1 (stereo not shown) | 0.576
68 | Cc1nn(-c2cccc(Cl)c2)c2nc(-c3ccco3)cc(C(=O)O)c12 | 19
69 | Cc1cccc(NC(=O)Nc2cccc(C)n2)n1 | 11.4

Row | Structure (SMILES) | hERG current change (%, negative = inhibition) at 10uM [%]
70 | CC(C)c1ccccc1NC(=S)NCC1(N(C)C)CCCCC1 | -10.3
71 | O=C(CN1CCN(c2ccc(Cl)cc2)CC1)Nc1cccc(F)c1 | -3.54
72 | ClCc1nnc(-c2ccccc2)o1 | 18.8
73 | Cc1ccnc(NS(=O)(=O)c2ccc(NC(=O)CCc3ccccc3)cc2)n1 | 16.4
74 | COc1ccc(C2C(CC(=O)O)=C(O)C(=O)N2c2ccccc2)cc1 (stereo not shown) | 7.18
75 | CCCCn1c(=O)[nH]c(=O)c2c1nc(-c1ccc3ccccc3c1)n2CC | 22.7
76 | Cn1nc(C(F)(F)F)c2cc(C(=O)Nc3ccc(C(F)(F)F)cc3)sc21 | 17
77 | O=[N+]([O-])c1ccc(NCc2ccccn2)nc1 | -5.06
78 | COc1cc2c(cc1OC)CN(CCOc1ccc(Br)cc1)CC2 | -68.8
79 | CCCCNC(=O)c1cc2nc3c(c(C(F)(F)F)n2n1)CCc1ccccc1-3 | 5.29
80 | CC(=O)Nc1ccc(NS(=O)(=O)c2ccc3ccccc3c2)cc1 | -6.01
81 | COc1ccc(NC(=O)CSc2nc(C)cc(C(F)(F)F)n2)cc1 | -27.4
82 | N#Cc1c(N)nc(SCc2ccncc2)c(C#N)c1-c1cccs1 | -4.79
83 | O=C(NCCC1=CCCCC1)C1COc2ccccc2O1 (stereo not shown) | -20.2
84 | CC(Sc1nnc(N)s1)c1ccccc1Cl (stereo not shown) | -6.14
85 | CC(C)CC(=O)NC(NC(=S)Nc1cccc2cccnc12)C(Cl)(Cl)Cl (stereo not shown) | 16.1
86 | COc1ccc(-c2nc3ccccc3c(=O)n2-c2nccs2)cc1 | 0.961
87 | O=C1NN(c2cccc(Br)c2)C(=O)/C1=C/c1ccc(-c2cc([N+](=O)[O-])ccc2O)o1 | -9.65
88 | Cc1ccnc(NC(=O)c2cc([N+](=O)[O-])cc([N+](=O)[O-])c2)c1 | 10.9
89 | CCNC(=O)OCC(CC)NC(=O)OCC(C)C (stereo not shown) | 6.29
90 | O=C(Nc1ccc(N2CCN(C(=O)c3ccccc3)CC2)cc1)c1cc([N+](=O)[O-])ccc1N1CCOCC1 | -35.9
91 | COc1ccc(N2C(=O)[C@@H]3[C@H](C2=O)[C@H]2c4ccccc4C=CN2[C@@H]3C(C)=O)cc1 | 23
